The other results are listed elsewhere or left out.
Test system: PfAP2-HC AP2 domain (GST-tagged)
Assay: gcPBM binding intensity (ln(normalized median fluorescence intensity)); higher = stronger DNA binding
Summary of the method: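 For binding intensity, the highest Masliner-normalised natural-log median intensity across replicate spots of either probe orientation was taken. Protein bound to the array was stained with Alexa488 anti-GST antibody and scanned at 488 nm. The protein, GST-tagged P. falciparum DNA-binding domains from E. coli at about 25 μg on average, had been applied for 1 h to an Agilent 4 × 180k array of primer-extended double-stranded 36-bp intergenic genomic probes and negative controls.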

Sequence	gcPBM binding intensity (ln)
GAATTGTATTGGTACTGTACAATTAAATTAAAAAAA [XGTACX_site1891]	9.65
AAAAAAAAAAAACACACACACACACCCATATATAAA [CACACA_site1170]	11.1
ACATAAAATTATTATACATGCATATTTAATTTTTTC [TGCATGCA_site353]	9.52
AAAAATATAAACAAACGTACGAAGTGATGATATATT [XGTACX_site2242]	9.96
TATTATATTTTTATTTGTACGTAAAATTAAGTTATG [XGTACX_site2405]	9.52
AATAATTAACAAAAAAAAAAAAAAAAAAAAAAAAAA [GTGCAC_negctrl_site255]	8.75
TATAAATAAATATGTACACACATATATACCTTTCAT [CACACA_site7291]	9.85
TATGTATTATATATTTGTACTCATTCTAATTCCTTC [XGTACX_site7294]	9.63
TATCTTTATATATAGTGTACACATTAAACAAATCTC [XGTACX_site7381]	9.58
TATTAATGATAAGAATATTTTATATGATACATGCAT [CACACA_negctrl_site923]	9.66
TTTAGTTTTTATATAGCACACATATTGTGATTATGT [CACACA_site8316]	9.86
AATTTATAAAAGAAGAGGACACATATAAATATAAAT [XGTACX_site59]	9.73
ATTTAAAAAAAAACGGAATTTTTTTTTTTTTTAAAG [XGTACX_negctrl_site91]	9.28
ACATATATGTATAATACACACACTAATATATAATTG [CACACA_site1966]	10
ATATTCATATATTTACGTACATACATTTATATATTT [XGTACX_site7644]	10
TATATTAATGTTCATAGTACGTATGATTAGGAAAAA [XGTACX_site616]	9.6
GGAAAGACAGTTCACAGTACCCAGGAAATCTGCGGA [XGTACX_site4933]	9.62
ACAAAATATATAGACACACAAACACAAATATGTTTT [CACACA_site3016]	9.95
TTAATATGAATTATTACATGCAACTAAATATATTTA [TGCATGCA_site490]	9.52

Sequence	gcPBM binding intensity (ln)
TAATACAGATTAAAAGGTACACTTATTTGGTATTAT [XGTACX_site4966]	9.71
TGTATATCACATGAGAGGTGGAGATGGGGATAAATA [CACACA_negctrl_site1148]	9.93
ATACAATTCTTACATTGTACTTTTTTTTTTTATCAC [XGTACX_site6327]	9.69
TACAACCTTTAGACAAGTACAAGAATTATATGTGGC [XGTACX_site4581]	9.72
ACTAAAAAAATAAACACACAGATTTATATAATATAT [CACACA_site4884]	9.83
TCTATACCTATTCTTACACACATATGTATAAATATA [CACACA_site6407]	9.85
TTGACAACTCTTTTCATACACACAAAAAAAAAAAAA [CACACA_site2362]	9.5
TATAAATATAAATACACACACATATATATTATATAT [CACACA_site4496]	10.1
TATATATATATATGTTGTACATATTTAAATGTTTAT [XGTACX_site5437]	9.55
ATATATATATATATGTGTACATAATAACTTTGCTTA [XGTACX_site1255]	9.97
ACCTATTTCAAACACACACACACACTAGCAAACATA [CACACA_site4695]	10.9
CTTATTTCCTTTTGTAGTACCTTATAATATATATAA [XGTACX_site8873]	9.64
TAATAATAGTACTCACATCAAAGTATTATTAAAAAT [TGCATGCA_negctrl_site496]	9.61
TTCTATTTGTAAAATTGTACAAAATAAATAACAAAA [XGTACX_site1007]	9.44
GCATTTCTACTAAAAATACACACGATGATACAACGA [CACACA_site1756]	9.63
TTATATATTTTTTGCACACCAAAAAAGAGAATATTC [CACACA_site2730]	9.63
GGGAAGTAGTAGTAATGTACTTATTTATTATGTGAC [XGTACX_site3985]	9.61
AATTAAATTATAAGCACACACATATATATATATATA [CACACA_site3351]	9.82
CCACGTATAATATGTACACACACATAAATACAAAAA [CACACA_site4660]	10.5

Sequence	gcPBM binding intensity (ln)
TAAAAAATGTTATATACACACAGTATAAAAAAAAAT [CACACA_site7808]	9.93
AATATTCACATTTGTTGTACATTCCTAGTTATATAA [XGTACX_site491]	9.74
TAAATATATAATTGTAGTACTGTTTTATGTTCATAA [XGTACX_site1020]	9.53
AAAAAATTTCAAATAACACACACTAATATATATATG [CACACA_site1426]	10.3
TAAACAGATATATTTTGTACATATTGTATATTTTGT [XGTACX_site713]	9.69
AAGGAAAATTTTTGGTGTACACAAAAAAATCCAAAA [XGTACX_site3596]	9.71
ACACATATGACAAATAGTACATAAATATATAAATAT [XGTACX_site7141]	9.89
AAATTGTGTTCATCAGCACACACAACATCATGTAAT [CACACA_site8556]	10.3
TTAATATATTATATTTGTACATATATATATATACAA [XGTACX_site4798]	9.48
AATAAATCTTTTTGTTGTACTAAAAATATTATTAGC [XGTACX_site3335]	9.4
CGAAAGAAAAAAAGCACACACAGTTTTGAGCAATGA [CACACA_site2109]	10.1
ACAAAAAAGTAAAAAGTGCATGTAAAATATAAGTAT [GTGCAC_site9438]	9.99
AGAAATTAATCGAGGTGTACGTACATCCAAATATAT [XGTACX_site7650]	9.73
CCATTATATCTAAGTACACACATTAATTTTTTTTTT [CACACA_site6115]	9.83
TATATATAAATATTCAGTACATAGTGCTATTAAGTG [XGTACX_site1979]	9.62
ATATATTTAACAAGATGTACAATTTTATAAAAAATA [XGTACX_site2351]	9.57
AATAGCAATTTGGGGTGTACACACACCTTATTTAAA [XGTACX_site2234]	9.84
TGAAAAGGAAATTGTTGTACATATGTTTCTTCCTAA [XGTACX_site3932]	9.53
